Test results: PubChem BioAssay AID652104 (National Center for Advancing Translational Sciences (NCATS), 2013)
Among all 410,000 compounds or so, about 7,200 (1.8%) were called active. This list was built around the results that the source calls inconclusive (neither active nor inactive); the mix of calls is not that of the screen. The call rests on the fitted dose curve; in most records, active means well fitted activation curve with a large enough effect; inconclusive means small, poorly fitted or top-dose-only effect, or another doubt; inactive means no such curve, though single readings can be large or run the other way. Potencies of inconclusive entries are left out as doubtful fits.

Test: qHTS of TDP-43 Inhibitors; further: nearly all actives have a fitted effect of over 50% in size; on growth rescue (activation): % of control where 0% means no effect
Conditions: TDP-43 expressing yeast growth rescue, BacTiter-Glo, 24 h; growth rescue (activation): at 46.1 µM (top of the series)
Outline: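 Luminescence from BacTiter-Glo reports growth of TDP-43-expressing yeast after 24 hr at 30 deg C with compound. Cells were raffinose-pregrown to mid-log, then seeded in galactose medium at OD600=0.02.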
Potency means the concentration at half of the fitted maximal effect; tags describe the fitted curve by direction and shape.

SMILES	Potency	growth rescue (activation)
COc1cccc(C2CC3C(=O)C=CC2N3Cc2ccccc2)c1 (stereo not given)	inactive	
CCOC(=O)c1ccccc1C(=O)OCC	inconclusive [activator, partial curve]	
Cc1ccccc1-n1c(/C=C/c2ccc(O)cc2)nc2ccccc2c1=O	inconclusive [activator, partial curve]	
NP(=O)(OCCCCc1ccccc1)Oc1ccccc1Cl (stereo not given)	inconclusive [activator, single point]	
Nc1ccc(C2(c3ccc(N)cc3)c3ccccc3-c3ccccc32)cc1	inactive	
Cc1onc(-c2ccccc2)c1C(=O)N[C@@H]1C(=O)N2C1SC(C)(C)[C@@H]2C(=O)O (stereo not given in full)	inconclusive [activator, full curve, poor fit]	
CC(=NCC1CCCO1)c1c(O)n(-c2ccc(Cl)cc2)c(=O)[nH]c1=O (stereo not given)	inconclusive [activator, partial curve]	
COC(=O)C1=C(c2ccccc2OCc2ccccc2)C[C@@H]2CC[C@H]1N2C(=O)NCc1cccc(C(F)(F)F)c1	inconclusive [activator, partial curve]	
COP(=S)(OC)SCn1nnc2ccccc2c1=O	inconclusive [activator, single point]	
C#C[C@]1(O)CC[C@H]2[C@@H]3CCC4=CC(=O)CC[C@]4(C)[C@H]3CC[C@@]21C	inconclusive [activator, partial curve, poor fit]	
O=C(CN1CC=C(c2ccccc2)CC1)Nc1c(Cl)cccc1Cl	inconclusive [activator, full curve, poor fit]	
O=c1oc2ccccc2n1CCCOc1ccccc1	inconclusive [activator, single point]	
O=C1c2ccccc2S(=O)(=O)c2cc(C(=O)N3CCN(c4c(Cl)cncc4Cl)CC3)ccc21	active: 12.6 µM	
CC(C)[N+](C)(CCC(C(N)=O)(c1ccccc1)c1ccccc1)C(C)C	inactive	
COc1ccc(/C=C2/C(=O)NC(=S)N(C3CC3)C2=O)cc1CN1C(=O)c2ccccc2C1=O	inactive	
C[N+](C)(C)CC(=O)O	inconclusive [activator, partial curve, poor fit]	
CN1C(=O)C(=Cc2ccc(Sc3ccccc3)o2)C(=O)N(C)C1=S	inconclusive [activator, single point]	
COC(=O)C1=C(c2ccc(OC(F)(F)F)cc2)C[C@@H]2CC[C@H]1N2C(=O)N1CCCC1	inconclusive [activator, partial curve, poor fit]	
C/C1=C\[C@@H](C)C/C=C/[C@H]2[C@@H]3O[C@]3(C)[C@@H](C)[C@H]3[C@H](Cc4c[nH]c5ccccc45)NC(=O)[C@]32C(=O)/C=C/C(=O)[C@@H]1O	active: 11.2 µM	
CCCNC(=O)N1[C@H]2CC[C@@H]1C(C(=O)OC)=C(c1cccc(Cl)c1)C2	inconclusive [activator, partial curve]	

SMILES	Potency	growth rescue (activation)
CSCCC(c1nnnn1-c1ccc2c(c1)OCCO2)N1CCC(n2c(=O)[nH]c3ccccc32)CC1 (stereo not given)	inactive	
COC(=O)C1=C(c2ccccc2OCc2ccccc2)C[C@@H]2CC[C@H]1N2C(=O)NCc1ccc(OC)cc1	active: 35.5 µM	
C[C@]12CC[C@@H](O)C[C@@H]1CC[C@@H]1[C@@H]2CC[C@]2(C)C(=O)CC[C@@H]12	active: 17.8 µM	
Cc1ccc(S(=O)(=O)N2CCCCC2)cc1NC(=O)CSc1ncnc2ccccc12	inconclusive [activator, single point]	
Cc1ccccc1-c1ccc2n1Cc1cnnn1-c1ccccc1-2	active: 12.6 µM	
COc1cc2c(cc1O)[C@@H]1Cc3ccc(OC)c(O)c3CN1CC2	inactive	
CN1C(=O)C(Cc2nc3ccccc3c(=O)n2-c2ccccc2)c2ccccc21 (stereo not given)	inactive	
O=[N+]([O-])/C=C/c1c(Cl)cccc1Cl		inconclusive: -86.6% [activator]
COc1cccc(CNC(=O)c2cc3c(-c4ccccc4F)nn(C)c3s2)c1	inconclusive [activator, partial curve, poor fit]	
COc1cc2c3cc1Oc1cc(ccc1O)C[C@@H]1c4c(cc(OC)c(O)c4Oc4cccc(c4)C[C@@H]3N(C)CC2)CC[N+]1(C)C	inconclusive [activator, partial curve, poor fit]	
S=C1Nc2ccccc2Sc2ccccc21	inconclusive [activator, single point]	
CC[C@H](C)/C=C(C)/C=C/C1=CC2=C(Cl)C(=O)[C@@](C)(OC(C)=O)C(=O)C2=CO1		inconclusive: -92.2% [activator]
O=C1CC(N2CC=C(c3ccccc3)CC2)C(=O)N1c1ccc(F)cc1 (stereo not given)	inconclusive [activator, single point]	
CNC(=O)O/N=C(\N)Cc1csc2ccccc12	inconclusive [activator, single point]	
O=c1[nH]c2ccccc2n1C1CCN(C(c2nnnn2C2CCCCC2)C2CC2)CC1 (stereo not given)	inconclusive [activator, full curve]	
CCCCn1c(O)c(C(CC)=NCc2ccc3c(c2)OCO3)c(=O)[nH]c1=O	inconclusive [activator, single point]	
COC(=O)C1=C(c2ccc(F)cc2OCc2ccccc2)C[C@@H]2CC[C@H]1N2C(=O)NCc1ccccc1Br	inconclusive [activator, full curve]	
COC(=O)C1=C(c2ccc(-c3ccccc3)c(F)c2)C[C@@H]2CC[C@H]1N2C(=O)N1CCCC1	active: 25.1 µM	
CCCC1COC(Cn2cncn2)(c2ccc(Cl)cc2Cl)O1 (stereo not given)	inconclusive [activator, partial curve, poor fit]	
OC1(c2ccc(Cl)cc2)CCN(Cc2c[nH]c3ccccc23)CC1	inconclusive [activator, partial curve, poor fit]	
